From the supplement of paper PMC12423691 come the findings set out here.

This is one part of the list. Binding of human transcription factors and regulators to the viral nucleoprotein by AlphaScreen, crude cell-free proteins, amounts not normalised, one pass. Fold of the Venus control; higher = more signal. No active / inactive call. Single-pass screen; sequences are the whole Swiss-Prot entries looked up by name.

The labels stand for the following.
B1: KLF10, Q13118 (protein)
chain: MLNFGASLQQTAEERMEMISERPKESMYSWNKTAEKSDFEAVEALMSMSCSWKSDFKKYVENRPVTPVSDLSEEENLLPGTPDFHTIPAFCLTPPYSPSDFEPSQVSNLMAPAPSTVHFKSLSDTAKPHIAAPFKEEEKSPVSAPKLPKAQATSVIRHTADAQLCNHQTCPMKAASILNYQNNSFRRRTHLNVEAARKNIPCAAVSPNRSKCERNTVADVDEKASAALYDFSVPSSETVICRSQPAPVSPQQKSVLVSPPAVSAGGVPPMPVICQMVPLPANNPVVTTVVPSTPPSQPPAVCPPVVFMGTQVPKGAVMFVVPQPVVQSSKPPVVSPNGTRLSPIAPAPGFSPSAAKVTPQIDSSRIRSHICSHPGCGKTYFKSSHLKAHTRTHTGEKPFSCSWKGCERRFARSDELSRHRRTHTGEKKFACPMCDRRFMRSDHLTKHARRHLSAKKLPNWQMEVSKLNDIALPPTPAPTQ
B2: ARRB1, P49407 (protein)
chain: MGDKGTRVFKKASPNGKLTVYLGKRDFVDHIDLVDPVDGVVLVDPEYLKERRVYVTLTCAFRYGREDLDVLGLTFRKDLFVANVQSFPPAPEDKKPLTRLQERLIKKLGEHAYPFTFEIPPNLPCSVTLQPGPEDTGKACGVDYEVKAFCAENLEEKIHKRNSVRLVIRKVQYAPERPGPQPTAETTRQFLMSDKPLHLEASLDKEIYYHGEPISVNVHVTNNTNKTVKKIKISVRQYADICLFNTAQYKCPVAMEEADDTVAPSSTFCKVYTLTPFLANNREKRGLALDGKLKHEDTNLASSTLLREGANREILGIIVSYKVKVKLVVSRGGLLGDLASSDVAVELPFTLMHPKPKEEPPHREVPENETPVDTNLIELDTNDDDIVFEDFARQRLKGMKDDKEEEEDGTGSPQLNNR
B3: TNFSF4, P23510 (protein)
chain: MERVQPLEENVGNAARPRFERNKLLLVASVIQGLGLLLCFTYICLHFSALQVSHRYPRIQSIKVQFTEYKKEKGFILTSQKEDEIMKVQNNSVIINCDGFYLISLKGYFSQEVNISLHYQKDEEPLFQLKKVRSVNSLMVASLTYKDKVYLNVTTDNTSLDDFHVNGGELILIHQNPGEFCVL
B4: SPIC, Q8N5J4 (protein)
chain: MTCVEQDKLGQAFEDAFEVLRQHSTGDLQYSPDYRNYLALINHRPHVKGNSSCYGVLPTEEPVYNWRTVINSAADFYFEGNIHQSLQNITENQLVQPTLLQQKGGKGRKKLRLFEYLHESLYNPEMASCIQWVDKTKGIFQFVSKNKEKLAELWGKRKGNRKTMTYQKMARALRNYGRSGEITKIRRKLTYQFSEAILQRLSPSYFLGKEIFYSQCVQPDQEYLSLNNWNANYNYTYANYHELNHHDC
B5: PPARD, Q03181 (protein)
chain: MEQPQEEAPEVREEEEKEEVAEAEGAPELNGGPQHALPSSSYTDLSRSSSPPSLLDQLQMGCDGASCGSLNMECRVCGDKASGFHYGVHACEGCKGFFRRTIRMKLEYEKCERSCKIQKKNRNKCQYCRFQKCLALGMSHNAIRFGRMPEAEKRKLVAGLTANEGSQYNPQVADLKAFSKHIYNAYLKNFNMTKKKARSILTGKASHTAPFVIHDIETLWQAEKGLVWKQLVNGLPPYKEISVHVFYRCQCTTVETVRELTEFAKSIPSFSSLFLNDQVTLLKYGVHEAIFAMLASIVNKDGLLVANGSGFVTREFLRSLRKPFSDIIEPKFEFAVKFNALELDDSDLALFIAAIILCGDRPGLMNVPRVEAIQDTILRALEFHLQANHPDAQYLFPKLLQKMADLRQLVTEHAQMMQRIKKTETETSLHPLLQEIYKDMY
B6: FOXA3, P55318 (protein)
chain: MLGSVKMEAHDLAEWSYYPEAGEVYSPVTPVPTMAPLNSYMTLNPLSSPYPPGGLPASPLPSGPLAPPAPAAPLGPTFPGLGVSGGSSSSGYGAPGPGLVHGKEMPKGYRRPLAHAKPPYSYISLITMAIQQAPGKMLTLSEIYQWIMDLFPYYRENQQRWQNSIRHSLSFNDCFVKVARSPDKPGKGSYWALHPSSGNMFENGCYLRRQKRFKLEEKVKKGGSGAATTTRNGTGSAASTTTPAATVTSPPQPPPPAPEPEAQGGEDVGALDCGSPASSTPYFTGLELPGELKLDAPYNFNHPFSINNLMSEQTPAPPKLDVGFGGYGAEGGEPGVYYQGLYSRSLLNAS
B7: THRA, P10827 (protein)
chain: MEQKPSKVECGSDPEENSARSPDGKRKRKNGQCSLKTSMSGYIPSYLDKDEQCVVCGDKATGYHYRCITCEGCKGFFRRTIQKNLHPTYSCKYDSCCVIDKITRNQCQLCRFKKCIAVGMAMDLVLDDSKRVAKRKLIEQNRERRRKEEMIRSLQQRPEPTPEEWDLIHIATEAHRSTNAQGSHWKQRRKFLPDDIGQSPIVSMPDGDKVDLEAFSEFTKIITPAITRVVDFAKKLPMFSELPCEDQIILLKGCCMEIMSLRAAVRYDPESDTLTLSGEMAVKREQLKNGGLGVVSDAIFELGKSLSAFNLDDTEVALLQAVLLMSTDRSGLLCVDKIEKSQEAYLLAFEHYVNHRKHNIPHFWPKLLMKEREVQSSILYKGAAAEGRPGGSLGVHPEGQQLLGMHVVQGPQVRQLEQQLGEAGSLQGPVLQHQSPKSPQQRLLELLHRSGILHARAVCGEDDSSEADSPSSSEEEPEVCEDLAGNAASP
B8: FOSL1, P15407 (protein)
chain: MFRDFGEPGPSSGNGGGYGGPAQPPAAAQAAQQKFHLVPSINTMSGSQELQWMVQPHFLGPSSYPRPLTYPQYSPPQPRPGVIRALGPPPGVRRRPCEQISPEEEERRRVRRERNKLAAAKCRNRRKELTDFLQAETDKLEDEKSGLQREIEELQKQKERLELVLEAHRPICKIPEGAKEGDTGSTSGTSSPPAPCRPVPCISLSPGPVLEPEALHTPTLMTTPSLTPFTPSLVFTYPSTPEPCASAHRKSSSSSGDPSSDPLGSPTLLAL
B9: ZNF213, O14771 (protein)
chain: MAAPLEAQDQAPGEGEGLLIVKVEDSSWEQESAQHEDGRDSEACRQRFRQFCYGDVHGPHEAFSQLWELCCRWLRPELRTKEQILELLVLEQFLTVLPGEIQGWVREQHPGSGEEAVALVEDLQKQPVKAWRQDVPSEEAEPEAAGRGSQATGPPPTVGARRRPSVPQEQHSHSAQPPALLKEGRPGETTDTCFVSGVHGPVALGDIPFYFSREEWGTLDPAQRDLFWDIKRENSRNTTLGFGLKGQSEKSLLQEMVPVVPGQTGSDVTVSWSPEEAEAWESENRPRAALGPVVGARRGRPPTRRRQFRDLAAEKPHSCGQCGKRFRWGSDLARHQRTHTGEKPHKCPECDKSFRSSSDLVRHQGVHTGEKPFSCSECGKSFSRSAYLADHQRIHTGEKPFGCSDCGKSFSLRSYLLDHRRVHTGERPFGCGECDKSFKQRAHLIAHQSLHAKMAQPVG
B10: ETS2, P15036 (protein)
chain: MNDFGIKNMDQVAPVANSYRGTLKRQPAFDTFDGSLFAVFPSLNEEQTLQEVPTGLDSISHDSANCELPLLTPCSKAVMSQALKATFSGFKKEQRRLGIPKNPWLWSEQQVCQWLLWATNEFSLVNVNLQRFGMNGQMLCNLGKERFLELAPDFVGDILWEHLEQMIKENQEKTEDQYEENSHLTSVPHWINSNTLGFGTEQAPYGMQTQNYPKGGLLDSMCPASTPSVLSSEQEFQMFPKSRLSSVSVTYCSVSQDFPGSNLNLLTNNSGTPKDHDSPENGADSFESSDSLLQSWNSQSSLLDVQRVPSFESFEDDCSQSLCLNKPTMSFKDYIQERSDPVEQGKPVIPAAVLAGFTGSGPIQLWQFLLELLSDKSCQSFISWTGDGWEFKLADPDEVARRWGKRKNKPKMNYEKLSRGLRYYYDKNIIHKTSGKRYVYRFVCDLQNLLGFTPEELHAILGVQPDTED
B11: HNF4G, Q14541 (protein)
chain: MNTTDNGVNCLCAICGDRATGKHYGASSCDGCKGFFRRSIRKSHVYSCRFSRQCVVDKDKRNQCRYCRLRKCFRAGMKKEAVQNERDRISTRRSTFDGSNIPSINTLAQAEVRSRQISVSSPGSSTDINVKKIASIGDVCESMKQQLLVLVEWAKYIPAFCELPLDDQVALLRAHAGEHLLLGATKRSMMYKDILLLGNNYVIHRNSCEVEISRVANRVLDELVRPFQEIQIDDNEYACLKAIVFFDPDAKGLSDPVKIKNMRFQVQIGLEDYINDRQYDSRGRFGELLLLLPTLQSITWQMIEQIQFVKLFGMVKIDNLLQEMLLGGASNDGSHLHHPMHPHLSQDPLTGQTILLGPMSTLVHADQISTPETPLPSPPQGSGQEQYKIAANQASVISHQHLSKQKQL
B12: ZHX2, Q9Y6X8 (protein)
chain: MASKRKSTTPCMVRTSQVVEQDVPEEVDRAKEKGIGTPQPDVAKDSWAAELENSSKENEVIEVKSMGESQSKKLQGGYECKYCPYSTQNLNEFTEHVDMQHPNVILNPLYVCAECNFTTKKYDSLSDHNSKFHPGEANFKLKLIKRNNQTVLEQSIETTNHVVSITTSGPGTGDSDSGISVSKTPIMKPGKPKADAKKVPKKPEEITPENHVEGTARLVTDTAEILSRLGGVELLQDTLGHVMPSVQLPPNINLVPKVPVPLNTTKYNSALDTNATMINSFNKFPYPTQAELSWLTAASKHPEEHIRIWFATQRLKHGISWSPEEVEEARKKMFNGTIQSVPPTITVLPAQLAPTKVTQPILQTALPCQILGQTSLVLTQVTSGSTTVSCSPITLAVAGVTNHGQKRPLVTPQAAPEPKRPHIAQVPEPPPKVANPPLTPASDRKKTKEQIAHLKASFLQSQFPDDAEVYRLIEVTGLARSEIKKWFSDHRYRCQRGIVHITSESLAKDQLAIAASRHGRTYHAYPDFAPQKFKEKTQGQVKILEDSFLKSSFPTQAELDRLRVETKLSRREIDSWFSERRKLRDSMEQAVLDSMGSGKKGQDVGAPNGALSRLDQLSGAQLTSSLPSPSPAIAKSQEQVHLLRSTFARTQWPTPQEYDQLAAKTGLVRTEIVRWFKENRCLLKTGTVKWMEQYQHQPMADDHGYDAVARKATKPMAESPKNGGDVVPQYYKDPKKLCEEDLEKLVTRVKVGSEPAKDCLPAKPSEATSDRSEGSSRDGQGSDENEESSVVDYVEVTVGEEDAISDRSDSWSQAAAEGVSELAESDSDCVPAEAGQA

This assay has as its target nucleoprotein N of Crimean-Congo hemorrhagic fever virus. The assay can be described thus: AlphaScreen luminescence signal relative to Venus negative control (fold); higher = stronger binding to CCHFV N. As to the method:
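AlphaScreen binding of cell-free made, FLAG-GST-tagged human transcription factors and regulators (crude translation products) to biotinylated N protein; signal as fold of the FLAG-GST-Venus control. One pass.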
As for B1, the AlphaScreen luminescence signal came out at 2.7.
As for B2, the figure is 2.56; as for B3, 2.6.
As for B4, the figure is 2.84; as for B5, 1.81; as for B6, 2.28.
Regarding B7, the AlphaScreen luminescence signal stood at 3.12.
In turn, B8 came in with an AlphaScreen luminescence signal of 1.81.
As for B9, the figure is 3.02; as for B10, 3.07.
For the molecule B11, the AlphaScreen luminescence signal was found to be 3.35.
With B12, the AlphaScreen luminescence signal was 2.09.
